The labels stand for the following.
B1: CPEB3 Ribozyme (parent)
chain: UAACAGGGGGCCACAGCAGAAGCGUUCACGUCGCAGCCCCUGUCAGAUUCUGGUGAAUCUGCGAAUUCUGCUGUAUAUCUC

Read counts are not given, so values of variants with three or more changes are uncertain.

The data set covers variants of B1. Put plainly: self-cleavage, relative activity (ratio to wild type); higher = more cleavage; in vitro, sequencing. The procedure, abridged:
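For each CPEB3 ribozyme variant, relative activity is its cleaved/total read fraction divided by the unmutated ribozyme's. Barcoded error-prone PCR libraries were transcribed by T7 RNA polymerase (5 hours, 37°C) and held in DNase I for 15 min before an EDTA stop, with cleavage occurring throughout. Template-switching reverse transcription and Illumina sequencing were used to read the RNAs. A 5-read minimum applied, and results are the mean of three batches.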
In the case of U25A U26C U41C, the self-cleavage was found to be 0.23.
U25C U43C U48A: the self-cleavage is 0.19.
Regarding U25A C32A U48C U60A G73C, the self-cleavage turned out to be 0.21.
As for G24A U31C A45U U49C A64G G70A, the figure is 0.1; as for U25C A35U A56C, 0.09.
As for U25A A35U U67A, the figure is 0.12; as for U25C U31A U41C C71G U78C, 0.22; as for U25C U41A U76A, 0.11.
As to U25C U26C U66C, the self-cleavage was 0.21.
The value for G24A U26C G33A A45G U72C was 0.08; that for U25C U31C U43C U67A was 0.1; that for U25A U26C A28G A35U was 0.21.
As for U25C C40U U49C U74C C79U, the figure is 0.25.
For the variant G24A G30A U54C, the self-cleavage is 0.33.
As for U25C C37G C39U A47G A57G, the figure is 0.09; as for U25C A75C U80C, 0.28; as for U25A A28U U76C, 0.41.
As to U25C C27U A35G, the self-cleavage stood at 0.15.
Regarding G24A G36A U43C U51A A65G, the self-cleavage worked out at 0.08.
U25C U41C U69C A77U: the self-cleavage came to 0.08.
As to U25C A47U U49C U67A, the self-cleavage stood at 0.11.
Turning to U25C G33A G46A, the self-cleavage worked out at 0.15.
U25C A28G C38G U51A U58C: the self-cleavage worked out at 0.07.
The value for U25C U41C U66C U78C was 0.31; that for G24A A45U G55A A56C U78C was 0.07.
Turning to G24C U26A A35G U41C U72C, the self-cleavage stood at 0.13.
As for U25A U26C U31C U43A, the figure is 0.13; as for U25A G30C U41G U51C U78C, 0.06; as for U25C A28U U43C A56G A57G U66A U80C, 0.15.
Turning to U25A G30C U76C, the self-cleavage amounted to 0.12.
The value for U25C C38A A77U was 0.08.
In the case of U25C U26C A28G U54C A77G, the self-cleavage turned out to be 0.25.
Take U25C U26A A45G A75U: the self-cleavage stood at 0.34.
As for G24C U26C A28G A64G U72A C79U, the figure is 0.05; as for U25C A28G U31A U41C U72A, 0.09; as for U25A U41A A47G U49C U54A A77G, 0.31.
The value for U25C A28G U51A U72C U78C was 0.21; that for U25C U43C U51G A56G was 0.35; that for U25C U26C U43A U74A was 0.28.
As for G24C G33A A35G, the figure is 0.16.
Consider U25C C39G U41C U69C, for which the self-cleavage came out at 0.06.
As for U25C A45U A47G, the figure is 0.04.
As for U25C A28U G33U U51A U60A, the figure is 0.08; as for U25C A35G C37U, 0.15.
G24U G52C U78C: the self-cleavage was determined as 0.21.
Regarding U25C A35G U51C A56G A65G U74G, the self-cleavage stood at 0.13.
For G24A A56U C59U U60A, the self-cleavage is 0.15.
For U25C A35C U41G, the self-cleavage is 0.3.
As to U25C U26C U31A C40U A64G C68A, the self-cleavage is 0.06.
On to G24A C39A U51C G63A U76C, for which the self-cleavage is 0.07.
As for U25C C38A A57G U69C U72C U76A, the figure is 0.15; as for U25C C29U U31A U41C U74C A77G, 0.09.
In the case of C23U U60C U72C A77G, the self-cleavage was 0.05.
For the variant U25C U26C U41A U51C U80A, the self-cleavage is 0.21.
As for U25C G33A U49C A57G A65G A77U, the self-cleavage stood at 0.04.
As for U25C U43C C62U A64U, the self-cleavage was 0.28.
With U25C A35G A75G, the self-cleavage was 0.24.
Consider U25C U41A U72G U76A, for which the self-cleavage was 0.07.
Take U25C U43C U51C U66C U72C: the self-cleavage is 0.13.
As for U25A U26C U67A, the figure is 0.13; as for U25A A35G U72C, 0.16; as for U25C C50A U58A, 0.06.
The value for U25A A35G A45G U67A was 0.22; that for U25C A57G A77G was 0.28.
As for U25C U43A A64U, the figure is 0.11.
As for U25A A28G U49C C71A, the self-cleavage is 0.09.
In the case of U25C C44U U60C U72C, the self-cleavage is 0.09.
U25C U31C A64U: the self-cleavage worked out at 0.27.
As for G24A A56G U76A, the figure is 0.47; as for U25C C29U U49C U67C, 0.41; as for G24C U26C U60A U80A, 0.11.
Regarding U25C A28U U31A C32A, the self-cleavage was found to be 0.12.
In the case of U25C A28G U66C, the self-cleavage turned out to be 0.2.
In the case of U25A U26C U49C C59U A65G U66C U72C, the self-cleavage is 0.18.
For the variant G24U U49C U54C A77U C81A, the self-cleavage came to 0.05.
The value for U25C U41A G73U A75G U80C was 0.04; that for U25A U26C U41A U54A U58C U67C A77U was 0.08.
Regarding G24U U41C A56U A75U, the self-cleavage was found to be 0.07.
Turning to U25C C38A A56U U78C, the self-cleavage stood at 0.05.
As for U25A G36U U69A A75U, the figure is 0.15.
Consider G24A A47G U60A U69A, for which the self-cleavage came to 0.2.
With G24A U49C U74C, the self-cleavage is 0.07.
U25C A57G A64U U76C: the self-cleavage is 0.42.
Regarding U25C A35U C38A U49C C71A, the self-cleavage was 0.13.
Take G24A U41C U58C A64U: the self-cleavage is 0.13.
Take U25C U41A U80C: the self-cleavage was 0.2.
Take U25A A64G A65G: the self-cleavage turned out to be 0.21.
For the variant U25A C62U U72A, the self-cleavage was 0.09.
As for G24A U26C U54G G61C, the figure is 0.09; as for U25C C59A C62U U69C U74C A75G, 0.03.
Regarding U25C U43C U49C U66C U69A, the self-cleavage was found to be 0.06.
The value for U25A U41A U80A was 0.22; that for U25C A35G U80A was 0.31.
The value for U25C U43C A56G U67A was 0.09; that for U25A A28G U43C was 0.45; that for U25C U26A U49A G70U was 0.13.
Take U25C A47U A56U: the self-cleavage was determined as 0.14.
The value for G24C U60G U66A was 0.47.
As for U25C A75U U80C, the figure is 0.27.
With C23U U54C U60C, the self-cleavage stood at 0.11.
The value for G24A U49C U51C U67C was 0.4.
As to U25C G30A A45U A57G A64G U72A A77G, the self-cleavage worked out at 0.09.
The value for U25C A35G C39U was 0.24.
On to C23U U41C U49C U72A, for which the self-cleavage turned out to be 0.04.
As for U25C A45G U49A U72C, the figure is 0.39; as for U25C U26C C40G U66C U69G U74C, 0.12.
As for U25A G70A U80A, the figure is 0.23; as for G24U U31C U54C, 0.11; as for U25C U26C A35U U66A A77C, 0.07.
The value for U25A A45G U49A U51A was 0.22; that for G24A A28G C29U U41C was 0.1.
On to U25C G33U U41C U51A G53A, for which the self-cleavage was 0.13.
As for U25C A28G U78C, the self-cleavage is 0.14.
As for G24U C29A U80G, the figure is 0.17.
For the variant U25C U31C U54G, the self-cleavage is 0.2.
As for U25C C38U U54C U66A, the figure is 0.13; as for U25C U26A U74C A77U, 0.2; as for U25C C37U U54A U78C U80A, 0.07.
The value for U25C C62U U67C was 0.13; that for U25C A47C U54C A57G U69A was 0.13; that for U25A C27U U72C was 0.27.
The value for U25A U41A U51A A56U A57G U60C was 0.1; that for U25C A65G U72C U80C was 0.41.
As for U25C U31C A64U G73A A75U, the self-cleavage turned out to be 0.1.
The value for U25A U26A U67C was 0.21; that for U25A A65U C68A U72A was 0.
In the case of U25C U26C A64G U72A, the self-cleavage is 0.07.
As for U25A U31A A35G U43C, the figure is 0.11; as for U25C C37U C59U U60C, 0.15.
Regarding U25C C38A C71U, the self-cleavage came to 0.08.
On to U25C A28G U48C A64G U78A, for which the self-cleavage was determined as 0.06.
The value for C23U U60A A64G U69C A75G was 0.05; that for U25C A35G U43C U72C was 0.26.
The value for U25C G33U U80C was 0.55; that for U25C U41C G53A was 0.25.
On to U25A G30A U78A, for which the self-cleavage amounted to 0.18.
The value for U25C U41A U43C U69C was 0.06; that for U25A A64U U74A was 0.2.
On to U25C U26C U49A, for which the self-cleavage was determined as 0.28.
The value for U25C A28G U60A was 0.23; that for G24A A28G A47G G55U was 0.2.
The value for G24A U26C C38A U66C U78C was 0.12.
As for G24A U25C A45G U74C A75G A77U, the figure is 0.06; as for U25C C32U G53A, 0.18; as for U25C U31C C40U U48C, 0.17.
With U25C U31C U51A U58C, the self-cleavage is 0.07.
As for U25A C34A U41A, the figure is 0.38; as for U25C C32U A35G U43A U51G C62U, 0.05; as for U25C A65G A77G, 0.22.
Turning to U25A U26A G33C U43A U48A, the self-cleavage was 0.06.
For U25C U31A U41C U48C U74C, the self-cleavage amounted to 0.18.
As for U25C A56G C62U A64G U78C, the figure is 0.07; as for U25C A47G U58C, 0.29; as for U25C C32A A45G A64U U78C, 0.19.
As to U25A C40U U48C A75U U80C, the self-cleavage was 0.29.
As for G24C U26C A64G U72A C79U, the figure is 0.15; as for G24U U25C U43C G53U U78A, 0.07; as for U25C G36C U54C U58C, 0.17.
As for U25C G61A U69C, the figure is 0.29; as for U25C U31C U54A A64U, 0.12.
With U25C U26C U60C U69C, the self-cleavage stood at 0.18.
The value for U25C U41C U76A was 0.44; that for U25C U26C U43C U66C was 0.1.
The value for U25A U26C U31C U41C U43C A56U was 0.07; that for U25C U41C U69C was 0.16.
As for U25C A64G U80A, the self-cleavage is 0.26.
As for U25C G36C A45U U60C U67C, the figure is 0.07.
